# Source: the supplement of paper PMC8728848
# This is one part of the list.
# Key:
# Assay in all cases: glycan array binding signal (z-score within array); higher = stronger binding
# Details in all cases: glycan notation: IUPAC condensed, linker removed
# Gal6S(b1-3)GlcNAc6S = molecular target: Gal6S(b1-3)GlcNAc6S
# Outline: (§1)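 Arrays were curated from the Consortium for Functional Glycomics database, 3228 in total, and kept only where the protein sequence was available. Binding is expressed as a within-array Z-score. This score was averaged across arrays of the same protein sequence at different concentrations or buffers and across linkers, and negative values can be read as non-binding.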
# Gal6S(b1-4)Glc = molecular target: Gal6S(b1-4)Glc
# Outline: as §1
# Gal6S(b1-4)Glc6S = molecular target: Gal6S(b1-4)Glc6S
# Outline: as §1
# Gal6S(b1-4)GlcNAc = molecular target: Gal6S(b1-4)GlcNAc
# Outline: as §1
# Gal6S(b1-4)GlcNAc6S = molecular target: Gal6S(b1-4)GlcNAc6S
# Outline: as §1
# GalNAc(a1-3)Gal = molecular target: GalNAc(a1-3)Gal
# Outline: as §1
# GalNAc(a1-3)GalNAc = molecular target: GalNAc(a1-3)GalNAc
# Outline: as §1
# [1] = molecular target: GalNAc(a1-3)GalNAc(a1-3)Gal(a1-4)Gal(b1-4)GlcNAc
# Outline: as §1
# [2] = molecular target: GalNAc(a1-3)GalNAc(b1-3)Gal(a1-4)Gal(b1-4)Glc
# Outline: as §1
# GalNAc(b1-3)Gal = molecular target: GalNAc(b1-3)Gal
# Outline: as §1
# [3] = molecular target: GalNAc(b1-3)Gal(a1-4)Gal(b1-4)GlcNAc
# Outline: as §1
# [4] = molecular target: GalNAc(b1-3)Gal(a1-4)Gal(b1-4)GlcNAc(b1-3)Gal(b1-4)Glc
# Outline: as §1
# [5] = molecular target: GalNAc(b1-3)Gal(a1-6)Gal(b1-4)Glc
# Outline: as §1
# GalNAc(b1-3)GalNAc = molecular target: GalNAc(b1-3)GalNAc
# Outline: as §1
# GalNAc(b1-3)GlcNAc = molecular target: GalNAc(b1-3)GlcNAc
# Outline: as §1
# GalNAc(b1-4)Gal(b1-4)Glc = molecular target: GalNAc(b1-4)Gal(b1-4)Glc
# Outline: as §1
# GalNAc(b1-4)GlcNAc = molecular target: GalNAc(b1-4)GlcNAc
# Outline: as §1
# [6] = molecular target: GalNAc(b1-4)GlcNAc(b1-2)Man
# Outline: as §1
# [7] = molecular target: GalNAc(b1-4)GlcNAc(b1-2)Man(a1-3)[GalNAc(b1-4)GlcNAc(b1-2)Man(a1-6)]Man(b1-4)GlcNAc(b1-4)GlcNAc
# Outline: as §1
# [8] = molecular target: GalNAc(b1-4)GlcNAc(b1-3)GalNAc(b1-4)GlcNAc
# Outline: as §1
# GalNAc(b1-4)GlcNAc6S = molecular target: GalNAc(b1-4)GlcNAc6S
# Outline: as §1
# GalNAc(b1-6)GalNAc = molecular target: GalNAc(b1-6)GalNAc
# Outline: as §1
# GalNAc3S(b1-4)GlcNAc = molecular target: GalNAc3S(b1-4)GlcNAc
# Outline: as §1
# GalNAc3S(b1-4)GlcNAc3S = molecular target: GalNAc3S(b1-4)GlcNAc3S
# Outline: as §1
# [9] = molecular target: GalNAc3S(b1-4)[Fuc(a1-3)]GlcNAc
# Outline: as §1
# GalNAc4S6S(b1-4)GlcNAc = molecular target: GalNAc4S6S(b1-4)GlcNAc
# Outline: as §1
# GalNAc6S(b1-4)GlcNAc = molecular target: GalNAc6S(b1-4)GlcNAc
# Outline: as §1
# Glc(a1-4)Glc = molecular target: Glc(a1-4)Glc
# Outline: as §1
# [10] = molecular target: Glc(a1-4)Glc(a1-4)Glc(a1-4)Glc
# Outline: as §1
# Glc(a1-6)Glc(a1-6)Glc = molecular target: Glc(a1-6)Glc(a1-6)Glc
# Outline: as §1
# [11] = molecular target: Glc(a1-6)Glc(a1-6)Glc(a1-6)Glc
# Outline: as §1
# Glc(b1-4)Glc = molecular target: Glc(b1-4)Glc
# Outline: as §1
# Glc(b1-6)Glc = molecular target: Glc(b1-6)Glc
# Outline: as §1
# GlcA(b1-3)Gal = molecular target: GlcA(b1-3)Gal
# Outline: as §1
# GlcA(b1-3)GlcNAc = molecular target: GlcA(b1-3)GlcNAc
# Outline: as §1
# GlcA(b1-6)Gal = molecular target: GlcA(b1-6)Gal
# Outline: as §1
# [12] = molecular target: GlcA3S(b1-3)Gal(b1-4)GlcNAc(b1-2)Man
# Outline: as §1
# [13] = molecular target: GlcA3S(b1-3)Gal(b1-4)GlcNAc(b1-3)Gal(b1-4)Glc
# Outline: as §1
binder,measurement,setting,value
Gal 8 (Homo sapiens) (protein) MLSLNNLQNIIYNPVIPYVGTIPDQLDPGTLIVICGHVPSDADRFQVDLQNGSSVKPRADVAFHFNPRFKRAGCIVCNTLINEKWGREEITYDTPFKREKSFEIVIMVLKDKFQVAVNGKHTLLYGHRIGPEKIDTLGIYGKVNIHSIGFSFSSDLQSTQASSLELTEISRENVPKSGTPQLQTVSPSWDLQGHGSETFCSVLWTRVFLEIAFCRPIGLTVASFQSLPFAARLNTPMGPGRTVVVKGEVNANAKSFNVDLLAGKSKDIALHLNPRLNIKAFVRNSFLQESWGEEERNITSFPFSPGMYFEMIIYCDVREFKVAVNGVHSLEYKHRFKELSSIDTLEINGDIHLLEVRSW,glycan array binding signal (z-score),Gal6S(b1-3)GlcNAc6S,-0.357
same,glycan array binding signal (z-score),Gal6S(b1-4)Glc,-0.375
same,glycan array binding signal (z-score),Gal6S(b1-4)Glc6S,-0.306
same,glycan array binding signal (z-score),Gal6S(b1-4)GlcNAc,-0.343
same,glycan array binding signal (z-score),Gal6S(b1-4)GlcNAc6S,-0.317
same,glycan array binding signal (z-score),GalNAc(a1-3)Gal,-0.325
same,glycan array binding signal (z-score),GalNAc(a1-3)GalNAc,-0.315
same,glycan array binding signal (z-score),[1],0.07
same,glycan array binding signal (z-score),[2],0.169
same,glycan array binding signal (z-score),GalNAc(b1-3)Gal,-0.28
same,glycan array binding signal (z-score),[3],-0.247
same,glycan array binding signal (z-score),[4],1.49
same,glycan array binding signal (z-score),[5],-0.356
same,glycan array binding signal (z-score),GalNAc(b1-3)GalNAc,-0.396
same,glycan array binding signal (z-score),GalNAc(b1-3)GlcNAc,-0.35
same,glycan array binding signal (z-score),GalNAc(b1-4)Gal(b1-4)Glc,-0.356
same,glycan array binding signal (z-score),GalNAc(b1-4)GlcNAc,-0.317
same,glycan array binding signal (z-score),[6],-0.354
same,glycan array binding signal (z-score),[7],-0.353
same,glycan array binding signal (z-score),[8],-0.28
same,glycan array binding signal (z-score),GalNAc(b1-4)GlcNAc6S,-0.352
same,glycan array binding signal (z-score),GalNAc(b1-6)GalNAc,-0.356
same,glycan array binding signal (z-score),GalNAc3S(b1-4)GlcNAc,-0.307
same,glycan array binding signal (z-score),GalNAc3S(b1-4)GlcNAc3S,-0.353
same,glycan array binding signal (z-score),[9],-0.356
same,glycan array binding signal (z-score),GalNAc4S6S(b1-4)GlcNAc,-0.357
same,glycan array binding signal (z-score),GalNAc6S(b1-4)GlcNAc,-0.358
same,glycan array binding signal (z-score),Glc(a1-4)Glc,-0.387
same,glycan array binding signal (z-score),[10],-0.354
same,glycan array binding signal (z-score),Glc(a1-6)Glc(a1-6)Glc,-0.198
same,glycan array binding signal (z-score),[11],-0.352
same,glycan array binding signal (z-score),Glc(b1-4)Glc,0.514
same,glycan array binding signal (z-score),Glc(b1-6)Glc,0.098
same,glycan array binding signal (z-score),GlcA(b1-3)Gal,-0.36
same,glycan array binding signal (z-score),GlcA(b1-3)GlcNAc,1.06
same,glycan array binding signal (z-score),GlcA(b1-6)Gal,-0.303
same,glycan array binding signal (z-score),[12],-0.358
same,glycan array binding signal (z-score),[13],-0.298
